According to article PMC5681660, “Reduced hepatitis B and D viral entry using clinically applied drugs as novel inhibitors of the bile acid transporter NTCP” (Scientific Reports, 2017):

Key:
human NTCP [1] = biological target: T1, human NTCP (Homo sapiens, UniProt Q14973); assay: Screening taurocholate uptake assay (96-well, [14C]taurocholate, 10 µM drug); details: for remaining activity at 10 µM: 10 min; for %NTCP activity: screening taurocholate uptake, 10 µM drug, Prestwick library
T1 sequence (Q14973 1-349): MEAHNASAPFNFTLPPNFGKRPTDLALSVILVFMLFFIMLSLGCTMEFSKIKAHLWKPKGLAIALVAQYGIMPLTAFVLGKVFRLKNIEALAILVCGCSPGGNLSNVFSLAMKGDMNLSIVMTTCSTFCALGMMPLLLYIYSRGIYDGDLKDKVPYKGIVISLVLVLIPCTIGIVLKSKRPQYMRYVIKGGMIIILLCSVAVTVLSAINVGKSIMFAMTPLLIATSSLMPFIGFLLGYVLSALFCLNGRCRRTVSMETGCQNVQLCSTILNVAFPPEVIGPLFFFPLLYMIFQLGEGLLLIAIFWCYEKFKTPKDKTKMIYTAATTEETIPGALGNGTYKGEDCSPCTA

human NTCP [2] = biological target: T1, human NTCP; assay: Screening fluorescent competitive Myrcludex B-FITC binding assay (96-well, 10 µM drug); details: 0.5 h
[3] = read-out: %NTCP activity, screening taurocholate uptake, 10 µM drug, Prestwick library

Row | SMILES | %NTCP activity (human NTCP [1]) [%] | remaining activity at 10 µM (human NTCP [1]; [3]) [%] | other results
1 | CCCCCCNC(=O)n1cc(F)c(=O)[nH]c1=O [Carmofur] |  |  | remaining activity at 10 µM (human NTCP [1]; read-out: %NTCP activity): 82%; remaining activity at 10 µM (human NTCP [2]; read-out: %NTCP binding): 71.7%
2 | O=C1NCN(c2ccccc2)C12CCN(CCCC(c1ccc(F)cc1)c1ccc(F)cc1)CC2 [Fluspirilen] | 99.8244 |  | 
3 | Cn1c(=O)c2[nH]cnc2n(C)c1=O [Aminophylline] |  | 93.8 | 
4 | CC(C)(C)NCC(O)c1cc(Cl)c(N)c(Cl)c1 (stereo not shown) [Clenbuterol hydrochloride] |  | 69.6 | 
5 | CC[N+](CC)(CC)CCC(O)(c1ccccc1)C1CCCCC1.[Cl-] (stereo not shown) [Tridihexethyl chloride] | 72.0524 |  | 
6 | CCN(CC)CCc1nc(-c2ccccc2)no1.O=C(O)CC(O)(CC(=O)O)C(=O)O [Oxalamine citrate salt] | 107.21 |  | 
7 | CCN(C)C(=O)Oc1cccc([C@H](C)N(C)C)c1 [Rivastigmine] |  | 115 | 
8 | C[C@]12N[C@H](Cc3ccccc31)c1ccccc12 [Dizocilpine maleate] |  | 81.6 | 
9 | Cl.O=C1OC(CN2CCOCC2)CN1/N=C/c1ccc([N+](=O)[O-])o1 (stereo not shown) [Furaltadone hydrochloride] | 93.127 |  | 
10 | CCC1(c2cccc(O)c2)CCCCN(C)C1 (stereo not shown) [Meptazinol hydrochloride] |  | 53.9 | 
11 | CN(Cc1cnc2nc(N)nc(N)c2n1)c1ccc(C(=O)N[C@@H](CCC(=O)O)C(=O)O)cc1 (racemic) [Amethopterin (R,S)] | 71.2892 |  | 
12 | COc1ccc(CCN)cc1OC [Homoveratrylamine] | 104.423 |  | 
13 | N[C@@H](C(=O)N[C@@H]1C(=O)N2C(C(=O)O)=C(Cl)CC[C@H]12)c1ccccc1 [Loracarbef] | 100.693 |  | 
14 | O.O=C1C(O)=C(O)C(=O)C(O)=C1O [Tetrahydroxy-1,4-quinone hydrate] | 112.78 |  | 
15 | C=C1c2c(Cl)ccc(O)c2C(=O)C2=C(O)[C@]3(O)C(=O)C(C(N)=O)=C(O)[C@@H](N(C)C)[C@@H]3[C@@H](O)[C@H]12.O=C(O)c1cc(S(=O)(=O)O)ccc1O [Meclocycline sulfosalicylate] | 58.2901 |  | 
16 | CC(C)(C)NC[C@@H](O)COc1cccc2c1CCCC2=O.Cl [(+) -Levobunolol hydrochloride] | 110.169 |  | 
17 | C[C@]12CCC(=O)C=C1CC[C@@H]1[C@@H]2[C@@H](O)C[C@@]2(C)[C@H]1CC[C@]2(O)C(=O)CO [Hydrocortisone base] | 47.3578 |  | 
18 | CS(=O)(=O)O.Cc1ccc2c(c1)c1c3n2CCNC3CCC1 (stereo not shown) [Pirlindole mesylate] | 102.068 |  | 
19 | c1ccc2c(c1)Nc1ccccc1S2 [Phenothiazine] |  | 93.5 | 
20 | C[n+]1ccccc1/C=N/O [Pralidoxime chloride] |  | 70 | 
21 | CCOC(=O)c1cncn1[C@H](C)c1ccccc1 [Etomidate] |  |  | remaining activity at 10 µM (human NTCP [2]; read-out: %NTCP binding, Prestwick library screen, 10 µM drug, Myrcludex B-FITC binding): 102%
22 | CCN1CCC[C@H]1CNC(=O)c1c(OC)ccc(Br)c1OC.Cl [Remoxipride Hydrochloride] | 99.19 |  | 

Row | SMILES | %NTCP activity (human NTCP [1]) [%] | remaining activity at 10 µM (human NTCP [1]; [3]) [%] | other results
23 | CC(C)NCC(O)c1cc(O)cc(O)c1.CC(C)NCC(O)c1cc(O)cc(O)c1.O=S(=O)(O)O (stereo not shown) | 46.7406 |  | 
24 | CNCC(O)c1ccc(O)cc1 (racemic) [(+,-)-Synephrine] | 96.7977 |  | 
25 | N#Cc1cc(NC(=O)C(=O)O)c(Cl)c(NC(=O)C(=O)O)c1 [Lodoxamide] | 50.9892 |  | 
26 | CS(=O)(=O)O.O=C(O[C@H]1C[C@H]2CC3C[C@@H](C1)N2CC3=O)c1c[nH]c2ccccc12 [Dolasetron mesilate] | 77.9066 |  | 
27 | NC(=O)OCCCc1ccccc1 [Phenprobamate] |  | 114 | 
28 | OC(c1ccccc1)(c1ccccc1)C1CCNCC1 [Azacyclonol] |  | 56.6 | 
29 | NC(=NCc1ccccc1)NC(=O)c1nc(Cl)c(N)nc1N [Benzamil hydrochloride] |  | 74.7 | 
30 | NC(=O)OCC(O)COc1ccc(Cl)cc1 (stereo not shown) [Chlorphensin carbamate] | 140.827 |  | 
31 | NC(=O)C[S+]([O-])C(c1ccccc1)c1ccccc1 (stereo not shown) [Modafinil] |  | 52.6 | 
32 | C#C[C@]1(O)CC[C@H]2[C@@H]3CCc4cc(OC)ccc4[C@H]3CC[C@@]21C [Ethynylestradiol 3-methyl ether] | 106.862 |  | 
33 | CNc1ncnc2c1ncn2[C@@H]1O[C@H](CO)[C@@H](O)[C@H]1O [N6-methyladenosine] | 77.1948 |  | 
34 | CN1[C@@H]2CC(OC(=O)[C@H](CO)c3ccccc3)C[C@H]1[C@@H]1O[C@@H]12.Cl (stereo partly shown) [Scopolamine hydrochloride] | 114.694 |  | 
35 | CN(C)C(=O)Oc1ccc[n+](C)c1.[I-] [Pyridostigmine iodide] | 124.801 |  | 
36 | CC(C)NNC(=O)c1ccncc1.O=P(O)(O)O [Iproniazide phosphate] | 94.348 |  | 
37 | Cc1cc(CC(=O)[O-])n(C)c1C(=O)c1ccc(Cl)cc1.[Na+] [Zomepirac sodium salt] | 105.704 |  | 
38 | CCC(NC(C)C)C(O)c1ccc(O)c(O)c1.CS(=O)(=O)O (stereo not shown) [Isoetharine mesylate salt] | 106.702 |  | 
39 | CCn1cc(C(=O)[O-])c(=O)c2ccc(C)nc21.[Na+] [Nalidixic acid sodium salt] | 93.1251 |  | 
40 | CC(=O)O[C@H]1C[C@H](O[C@H]2[C@@H](O)C[C@H](O[C@H]3[C@@H](O)C[C@H](O[C@H]4CC[C@@]5(C)[C@H](CC[C@@H]6[C@@H]5C[C@@H](O)[C@]5(C)[C@@H](C7=CC(=O)OC7)CC[C@]65O)C4)O[C@@H]3C)O[C@@H]2C)O[C@H](C)[C@H]1O[C@@H]1O[C@H](CO)[C@@H](O)[C@H](O)[C@H]1O [Lanatoside C] |  | 51 | 
41 | CCN(C(C)=O)c1cccc(-c2ccnc3c(C#N)cnn23)c1 [Zaleplon] |  | 125 | 
42 | CCCC(=O)Nc1ncnc2c1ncn2[C@@H]1O[C@@H]2COP(=O)([O-])O[C@H]2[C@H]1OC(=O)CCC.[Na+] [Bucladesine sodium salt] | 86.4993 |  | 
43 | CN(C)CCN1C(=O)c2ccccc2N(C)c2ccccc21.Cl [Dibenzepine hydrochloride] | 39.6298 |  | 
44 | CC[N+](C)(CC)CCC[n+]1c(-c2ccccc2)c2cc(N)ccc2c2ccc(N)cc21.[I-].[I-] [Propidium iodide] | 56.1956 |  | 

Row | SMILES | %NTCP activity (human NTCP [1]) [%] | remaining activity at 10 µM (human NTCP [1]; [3]) [%] | other results
45 | CC(NC(C)(C)C)C(=O)c1cccc(Cl)c1 (stereo not shown) [Bupropion hydrochloride] |  | 58.7 | 
46 | C#CCN(C)[C@H](C)Cc1ccccc1 [Selegiline hydrochloride] |  | 59.9 | 
47 | CC(=O)NC1CCSC1=O (racemic) [N-Acetyl-DL-homocysteine Thiolactone] | 111.761 |  | 
48 | O=C1c2cccc(O)c2C(=O)c2c(O)cccc21 [1,8-Dihydroxyanthraquinone] | 74.8966 |  | 
49 | C=C1CC[C@@]2(O)[C@H]3Cc4ccc(O)c5c4[C@@]2(CCN3CC2CC2)[C@H]1O5 [Nalmefene hydrochloride] |  | 121 | 
50 | COc1ccc(OC)c(C(O)C(C)N)c1 (stereo not shown) [Methoxamine hydrochloride] |  | 66.9 | 
51 | CN(C)C(=O)Oc1cc(OC(=O)N(C)C)cc(C(O)CNC(C)(C)C)c1.Cl (stereo not shown) [Bambuterol hydrochloride] | 105.036 |  | 
52 | C=CCN1CCCC1CNC(=O)c1cc2[nH]nnc2cc1OC.Cl (stereo not shown) [Alizapride HCl] | 94.6685 |  | 
53 | C=CC[C@]1(O)CC[C@H]2[C@@H]3CCC4=CC(=O)CCC4=C3C=C[C@@]21C [Altrenogest] |  | 90.2 | 
54 | O=c1[nH]c2ccccc2n1CCCN1CCC(n2c(=O)[nH]c3cc(Cl)ccc32)CC1 [Domperidone] |  | 53.4 | 
55 | Cc1cccc(CN2CCN(C(c3ccccc3)c3ccc(Cl)cc3)CC2)c1.Cl.Cl (stereo not shown) [Meclozine dihydrochloride] | 43.965 |  | 
56 | C=C1C[C@@H]2[C@H](CC[C@]3(C)C(=O)CC[C@@H]23)[C@@]2(C)C=CC(=O)C=C12 [Exemestane] |  | 120 | 
57 | COc1cc(C(=O)OCCCN2CCCN(CCCOC(=O)c3cc(OC)c(OC)c(OC)c3)CC2)cc(OC)c1OC.Cl.Cl [Dilazep dihydrochloride] | 103.189 |  | 
58 | CC(CN(C)C)C(C)(O)Cc1ccc(Cl)cc1.Cl (stereo not shown) [Clobutinol hydrochloride] | 53.2009 |  | 
59 | CCN(CC)CCNC(=O)c1cc(Cl)c(N)cc1OC.Cl [Metoclopramide monohydrochloride] | 131.228 |  | 
60 | CN1CCN(C(c2ccccc2)c2ccccc2)CC1.Cl [Cyclizine hydrochloride] | 63.939 |  | 
61 | C=CCOC(Cn1ccnc1)c1ccc(Cl)cc1Cl (stereo not shown) [Enilconazole] |  | 78.7 | 
62 | CCC1(CC)C(=O)C=CNC1=O [Pyrithyldione] |  | 104 | 
63 | COc1ccc([C@@H]2CC(=O)c3c(O)cc(O[C@@H]4O[C@H](CO[C@@H]5O[C@@H](C)[C@H](O)[C@@H](O)[C@H]5O)[C@@H](O)[C@H](O)[C@H]4O)cc3O2)cc1O [Hesperidin] | 92.3807 |  | 
64 | C[C@@H]1C[C@H]2[C@@H]3C[C@H](F)C4=CC(=O)C=C[C@]4(C)[C@@]3(F)[C@@H](O)C[C@]2(C)[C@@]1(O)C(=O)COC(=O)C(C)(C)C [Flumethasone pivalate] |  | 108 | 
65 | NC(N)=NCc1cccc(I)c1.NC(N)=NCc1cccc(I)c1.O=S(=O)(O)O [Iobenguane sulfate] | 89.644 |  | 
66 | C[C@]12C/C(=C/O)C(=O)C[C@@H]1CC[C@@H]1[C@@H]2CC[C@@]2(C)[C@H]1CC[C@]2(C)O [Oxymetholone] |  | 87.6 | 

Counter-ions that a name gives are not always drawn.
